# Experimental data taken from the supplement of paper PMC10126150.
# Sequences with one replicate were seen in a single cluster, so their values are uncertain.
# Tested on: ATP
# Experiment: switch fluorescence ratio, 500 uM ATP over buffer (Cy3 cluster intensity, sum of 5 cycles each) (fold (ratio)); higher = stronger signal-on switching upon ATP binding; sequences stand for … in TCGTCGGCAGCGTCAGATGTGTATAAGAGACAGTTTTTTTTTTTTTTTTTTTTTTTTT…TC
# Details: aptamer strand: ATP DNA aptamer (quencher-CACCTGGGGGAGTATTGCGGAGGAAGG + anchor), 100 nM annealed; ATP concentration: 500 uM; one replicate
# Method in brief: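 Values give the fluorescence ratio for each switch-domain sequence, averaged from per-cluster ratios of summed target-cycle to summed buffer-cycle Cy3 intensity. The Cy3-labelled switching-strand clusters sat on a modified Illumina MiSeq flow-cell, were annealed to 100 nM quencher-labelled ATP aptamer, and were imaged in selection buffer, then after 15 min with 500 uM ATP at 22 °C. Five cycles ran with NaOH stripping and re-annealing between them, and clusters outside 100-1000 RFU were excluded.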
# 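Also: ATP exposure 15 min at 22 °C before imaging.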
row,Sequence,switch fluorescence ratio
1,TGCACAAGGG,1.02
2,TTGAGTAGTC,0.98
3,TGGGTGCTTG,1.01
4,AAAAATCGCC,1.02
5,ACTCGGGAGC,1.01
6,TCGGCTGAG,0.982
7,CCTTGAGGGT,0.929
8,TGACAATAAG,0.996
9,TAGATATGAA,1.02
10,ATAAGCCGAC,1.11
11,ATAGCCTCCT,1.03
12,AATTCAAAGA,0.974
13,TTTCTTACAC,1.02
14,TGGCCCAGTT,0.979
15,GCCCTGATAA,1.01
16,TACTAAAGAG,0.932
17,TCATTGCCCG,0.925
18,CGGGAACTAA,1.03
19,GGTGATTGCC,0.974
20,TGGGTTAGT,0.967
21,ACATGAAAAT,1.03
22,CTATATCCGA,1.01
23,TGGCGCTAGA,1.01

row,Sequence,switch fluorescence ratio
1,GGGTGTTTAT,1.06
2,GTCCAAGATT,0.963
3,TACCGATTCC,1.43
4,TTAGGTAGCT,0.992
5,TCGAAATCAG,0.972
6,TGGGTTTCGG,0.97
7,CAAGGGCGTT,0.984
8,AGAGTAGCAA,1.57
9,TGTGCAGAGT,0.991
10,TATGTCGAC,1.01
11,CCATTTTTGT,0.972
12,CACGAGTCTG,1.04
13,CGTTATAGTT,1.02
14,TGATAAGTTG,1.01
15,ATAATGATGA,1.02
16,TATTGCATGG,1.02
17,CCTTACGTAG,1.7
18,CCATGCAGTT,1.05
19,TCGAGGTGTA,0.998
20,GGGTCAATA,1.07
21,GCTATGACTG,0.967
22,AATTGCAGCC,1.07
23,CCAGTGCCTC,1.02

row,Sequence,switch fluorescence ratio
1,CCTAGTGGCG,1.04
2,TAGTCGTAGG,1.04
3,CAACGGGCGT,1.04
4,ACGGCATGTG,1.05
5,CCGGGAACCA,1.03
6,AGAAATTCTT,1.02
7,GGTTTTCAG,1.03
8,AGGGAAGCC,0.989
9,AGTGTATTAG,1.05
10,ATCGTCCTTG,0.991
11,GAGGACCTGA,1.07
12,ATCCTGAGGG,1.01
13,GTTTGTTGCT,0.984
14,AATCGGTTTC,0.988
15,GCCCGTGCC,1.03
16,CGTTACGCCA,1.06
17,CCTGAAAACG,1.06
18,AGAGGCGCTC,0.962
19,CAGGACTAAA,1.01
20,CGGTGGC,1.17
21,TGACAATATC,1.59
22,GGTCTGCCTA,1.07
23,CTTGCTCTCG,1.26

row,Sequence,switch fluorescence ratio
1,ATGAGCCCCT,0.965
2,ATGACCGTGT,0.999
3,TAACTTATTA,0.975
4,TCTATGTCCC,1.03
5,CATGGTCAGA,1.03
6,TACGCAGCAT,6.07
7,GGCTGAGTTG,0.931
8,AGCTGCTTTT,0.981
9,ATTCGAAGCA,1.22
10,CCGGTTGGCC,0.997
11,CCGGGGTATG,1.06
12,TCTATTGAGT,0.994
13,GATTTGACGC,0.993
14,AGTGGAGCCA,0.979
15,GGGGTACGG,1.01
16,CCCGCTCTTT,1.1
17,ATGGCTTATA,0.965
18,CGAAGGGAAG,1.02
19,GACGTGTCAT,0.972
20,TAACACCTT,1.15
21,GCCAAACAGG,1.07
22,CTGAAGTATG,1.02
23,TGCATATTGT,1

row,Sequence,switch fluorescence ratio
1,GGTATAGTAA,1.03
2,AGAGAAATGT,1.03
3,TTGTTAAGGA,1.13
4,TAAAAATCAA,1.01
5,TGGCGCGA,1.04
6,GATGAAGTTT,0.921
7,AAGGACCATT,1.03
8,TTCAACAGGC,0.961
9,ACCCGGGCCG,0.955
10,CCAATGTGGC,1.06
11,TCTACAACGT,1.02
12,AGTTGGAAGT,1
13,ACGAGGTATT,0.987
14,CGAGAGTATC,0.98
15,TCGTTGCGAC,1.01
16,CCATCGTTCT,0.985
17,TCTGTTTAGT,0.982
18,TGCGCTGCGG,0.974
19,TCAGTACGGC,0.993
20,TACTTGGGGG,1.01
21,AGTTATTCGT,1.03
22,GCGGTTGAAA,1
23,TTAGTCACCT,1.14

row,Sequence,switch fluorescence ratio
1,GTTAGCTCGC,0.974
2,CCCTGACGTG,1.05
3,ATGTGTGAGC,1
4,TTGTTGATAA,0.915
5,GACTCACAGC,1.17
6,CCAAGGTTAA,0.983
7,TGTCACATGA,0.999
8,GAGATTTTGC,1.01
9,AAACGCGTG,1.04
10,AAGGCATGAA,0.987
11,ACGACAGCCT,1.25
12,CATGACAATT,1.03
13,TCCTAGTCTT,0.992
14,GGTCGCCTGC,0.948
15,TAGGGGGATA,1.03
16,ACACAACAGC,1.09
17,CTCCGTCGAG,2.42
18,GGGCTAGCAT,0.986
19,TGCTAGGTGC,1.46
20,TCACGGAGTT,0.987
21,TATTTGGTAA,0.96
22,AGCTATCCAT,0.995
23,CGTTAATGGT,0.975

row,Sequence,switch fluorescence ratio
1,ATGATCTTGT,0.965
2,GAGAGTACCT,1.14
3,CCTTCCGTTG,2.73
4,TAAGATCCTT,1.01
5,TTTGAAACT,1.04
6,GAACGGGGAT,0.986
7,TGCTAAAGTC,0.964
8,GGAAGTTCTT,1
9,CCGTCGTCAA,4.49
10,TTGTGATGG,0.986
11,TGAAGGCGCT,1.08
12,GGGAGCAATC,2.63
13,AATAGCCCTT,0.994
14,GTTTATGGGG,1.04
15,GGAGGCGGCC,1.01
16,ACAACAACGG,1.14
17,GCCAGTCTTA,1.03
18,GGAAATTAGC,0.927
19,GCGCCTGGGG,1.02
